Out of some 310,000 compounds screened, about 2,200 (0.71%) showed an effect of 50% or more. Effects have a minus sign here. The list shows a part of the results.
molecular target: human ether-à-go-go-related gene (hERG) potassium channel (human, UniProt Q12809); assay: primary screen, population patch clamp on CHO cells stably expressing hERG
Sequence (Q12809 whole entry, looked up): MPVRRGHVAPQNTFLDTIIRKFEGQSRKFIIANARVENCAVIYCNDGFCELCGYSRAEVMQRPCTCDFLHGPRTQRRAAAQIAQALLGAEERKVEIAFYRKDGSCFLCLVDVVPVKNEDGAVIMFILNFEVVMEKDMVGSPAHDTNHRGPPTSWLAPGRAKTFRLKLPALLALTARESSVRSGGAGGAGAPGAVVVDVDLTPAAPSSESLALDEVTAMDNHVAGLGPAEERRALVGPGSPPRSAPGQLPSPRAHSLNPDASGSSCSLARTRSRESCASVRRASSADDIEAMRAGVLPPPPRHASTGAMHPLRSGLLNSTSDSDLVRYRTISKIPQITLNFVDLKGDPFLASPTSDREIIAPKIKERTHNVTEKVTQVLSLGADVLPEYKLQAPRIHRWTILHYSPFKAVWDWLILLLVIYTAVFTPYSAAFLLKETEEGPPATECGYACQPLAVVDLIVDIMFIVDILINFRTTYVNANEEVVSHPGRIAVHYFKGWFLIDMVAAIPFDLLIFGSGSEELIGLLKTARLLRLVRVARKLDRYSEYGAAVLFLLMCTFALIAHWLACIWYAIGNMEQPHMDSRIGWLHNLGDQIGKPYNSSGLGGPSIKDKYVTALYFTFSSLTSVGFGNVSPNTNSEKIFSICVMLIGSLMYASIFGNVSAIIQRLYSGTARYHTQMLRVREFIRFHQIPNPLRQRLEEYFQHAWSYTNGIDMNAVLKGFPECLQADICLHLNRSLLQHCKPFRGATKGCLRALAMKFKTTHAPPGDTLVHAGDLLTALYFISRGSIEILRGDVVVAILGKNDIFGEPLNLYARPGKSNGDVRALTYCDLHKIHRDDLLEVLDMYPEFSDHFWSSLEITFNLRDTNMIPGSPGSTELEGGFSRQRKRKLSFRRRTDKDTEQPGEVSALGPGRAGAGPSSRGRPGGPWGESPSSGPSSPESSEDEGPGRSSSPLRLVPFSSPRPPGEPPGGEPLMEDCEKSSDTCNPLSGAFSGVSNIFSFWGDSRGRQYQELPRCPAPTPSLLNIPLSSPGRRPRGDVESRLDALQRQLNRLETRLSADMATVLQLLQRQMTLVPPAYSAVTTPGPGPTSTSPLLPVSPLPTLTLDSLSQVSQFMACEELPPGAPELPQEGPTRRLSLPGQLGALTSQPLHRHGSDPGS

| Compound | hERG current change (%, negative = inhibition) at 1uM [%] |
| --- | --- |
| Cc1ccc(N=Nc2ccc(O)c3ncccc23)cc1 | 18.3 |
| CC1CN(C(=O)c2ccccc2Oc2ccccc2)CC(C)O1 (stereo not drawn) | 3.26 |
| CCC(C)c1ccc(O)c(NC(=O)c2cncc(Br)c2)c1 (stereo not drawn) | -2.11 |
| COc1ccc(CN2CCCC(C(=O)Nc3cccc(-n4cccn4)c3)C2)cc1 (stereo not drawn) | 1.9 |
| CCOC(CNc1cc(C)nc2c(-c3ccccc3OC)c(C)nn12)OCC | 12.6 |
| CCC(C)[C@H](NC(=O)N1CCCC1)C(=O)OC (stereo partly drawn) | 2.13 |
| COc1ccc(C(=O)Nc2nncs2)c(OC)c1 | 11.1 |
| CCC(C)(NC(=O)c1ccc(=O)[nH]c1)C(=O)NC1CCCC1 (stereo not drawn) | 7.25 |
| N#CC1(NC(=O)CN2CCN(S(=O)(=O)c3ccccc3F)CC2)CCCC1 | -4.06 |
| Cc1cccc(C(=O)C2CCOC(C)(C)C2)c1 (stereo not drawn) | 12.8 |
| Cc1ccsc1C(=O)C1CCCN(Cc2cn(C)nc2-c2ccccc2)C1 (stereo not drawn) | 2.96 |
| c1ccc(Cn2ccc(-c3cnc(-c4ccccc4)s3)n2)cc1 | 20.5 |
| CCOc1ccc(-c2nnc3sc(COc4ccccc4)nn23)cc1 | 21.7 |
| COc1cc(O)cc2c1[C@@H]1Oc3c(ccc(O)c3CC=C(C)C)[C@@H]1CO2 | -4.24 |
| CCN(CC)S(=O)(=O)c1ccc(C(=O)N2CCN(C3=NS(=O)(=O)c4ccccc43)CC2)cc1 | 3.62 |
| O=C(OCc1nc2scc(-c3ccccc3)c2c(=O)[nH]1)c1cccc([N+](=O)[O-])c1 | 5.93 |
| O=c1c2ccccc2n2c(-c3cccc(Cl)c3)nnc2n1Cc1ccccc1 | 10 |
| C/C=C/C(=O)Nc1ccc(N2CCN(c3ccc(C(F)(F)F)cn3)CC2)nc1 | 9.74 |
| COc1ccc(NC(=O)COc2ccc(C(=O)OCC(=O)N(C)C3CCS(=O)(=O)C3)cc2OC)cc1 (stereo not drawn) | 14.6 |
| COc1ccccc1NC(=O)C(=O)NNC(=O)c1ccco1 | 8.22 |
| COc1cccc(NC(=O)Cn2c(=O)n(CCC(=O)NCc3ccco3)c(=O)c3ccccc32)c1 | 2.13 |
| CN(C(=O)CSc1nc2ccccc2o1)C1CCS(=O)(=O)C1 (stereo not drawn) | -3.04 |
| O=C(c1cccnc1)N(Cc1ccccc1)c1ccccc1 | -7.73 |

| Compound | hERG current change (%, negative = inhibition) at 1uM [%] |
| --- | --- |
| CC(=O)c1cccc(NC(=O)CN(C)S(=O)(=O)c2ccc3c(c2)CC(C)N3C(C)=O)c1 (stereo not drawn) | 17.7 |
| COc1cc(/C=C2/SC(=S)N(CC(=O)O)C2=O)ccc1OC(=O)c1cccs1 | 13.4 |
| CCOCCCNC(=S)N(CCCN(C)C)Cc1cc2cc3c(cc2[nH]c1=O)OCCO3 | 1.61 |
| Clc1cccc(Cl)c1CO/N=C/c1cccs1 | 11 |
| O=C(Nc1cc(=O)[nH]c(=O)[nH]1)c1cc(Cl)ccc1Cl | 22 |
| N#CC1=C(c2ccccc2)/C(=C/c2ccccc2)OC1=O | 6.62 |
| CCOc1cccc(=O)c2c(C)n(-c3ccc(C(=O)O)cc3)c(C)c12 | 18.3 |
| CC1CN(C(=O)CCC(=O)N2CCN(c3cccc(C(F)(F)F)c3)CC2)c2ccccc2O1 (stereo not drawn) | 2.99 |
| CC1(C)Cc2c(cnn2-c2ccc(F)cc2)C(NC(=O)c2ccoc2)C1 (stereo not drawn) | -95.7 |
| O=C(NC(C(=O)c1ccccc1)N1CCCCC1)c1ccccc1 (stereo not drawn) | 8.23 |
| Nc1ccc([N+](=O)[O-])cc1 | 13.6 |
| CNC(=S)NNC(=O)c1sc2cc(C(F)(F)F)cnc2c1-c1ccccn1 | 4.79 |
| COC(=O)C1CCN(C(=O)COC(=O)Cc2c[nH]c3ccccc23)CC1 | 5.1 |
| O=C(NCc1ccccc1)NC1(C(=O)N2CCOCC2)CCCCC1 | 6.64 |
| COc1ccc(S(=O)(=O)Nc2ccc3c(c2)OCCO3)cc1Cl | 5.1 |
| CC(OC(=O)/C=C/c1ccco1)C(=O)NC1CCCCC1C (stereo not drawn) | 4.12 |
| CC1(c2ccccc2)NC(=O)N(CC(=O)N2CCOCC2)C1=O (stereo not drawn) | 7.93 |
| COc1cc(C(=O)NC2CCN(Cc3ccccc3)CC2)cc(Cl)c1OC | -1.24 |
| O=C(CCc1nnc2n(Cc3ccc(F)cc3)c(=O)c3ccccc3n12)NCCCN1CCOCC1 | 10.5 |
| COc1ccc(C(=O)CCC(=O)NCCc2c[nH]c3ccccc23)cc1 | 4.74 |
| O=C(c1ccc(F)cc1)N1CCN(c2ccc([N+](=O)[O-])c(N3CCCCC3)c2)CC1 | 9.28 |
| Cc1cccc(C)c1NC1=C(Cl)C(=O)OC1OC(C)C (stereo not drawn) | 19.8 |
| O=C(Nc1nccs1)c1cn2ccccc2n1 | 9.99 |

| Compound | hERG current change (%, negative = inhibition) at 1uM [%] |
| --- | --- |
| O=C(CCCSc1ccc(Cl)cc1)Nc1ccccc1O | 13.9 |
| O=C(Nc1c(F)cc(F)cc1Br)c1cc(S(=O)(=O)N2CCN(c3ccccn3)CC2)ccc1F | 0.58 |
| Cc1ccc(NC(=O)Nc2ccc3c(c2)nnn3C)cc1C | 20.8 |
| Cc1cn(COC/C=C/c2ccccc2)c(=O)[nH]c1=O | 7.16 |
| COc1ccc(-n2c(SCC(=O)N3CCOCC3)nc(O)c(Cc3ccccc3)c2=O)cc1 | 11.3 |
| S=c1[nH]nc(-c2cccnc2)n1/N=C/c1ccccc1 | 10.9 |
| CCC/C(C)=N\Nc1nc2c(c(=O)n(C)c(=O)n2C)n1C | 9.59 |
| CC1=C(C(=O)OC(C)C)[C@@H](c2ccc(C)o2)NC(=O)N1 | 17.5 |
| CCOc1ccc(N(CC(=O)NC2CCCCC2)C(=O)CCC(=O)Nc2nccs2)cc1 | 0.629 |
| CCC1CCCCN1C(=O)CSc1nc2c(c(=O)n1C)SC(C)C2 (stereo not drawn) | -1.54 |
| O=C(Nc1ccc2c(c1)OCO2)N1CCCc2ccccc21 | 9.3 |
| CC(=O)NCC(=O)OCC(=O)N1c2ccccc2Sc2ccccc21 | 10.1 |
| O=C(Nc1ccc(CN2CCOCC2)cc1)c1ccco1 | 9.74 |
| O=C(CCN1N=C(c2ccccc2)CCC1=O)NCC1COc2ccccc2O1 (stereo not drawn) | 4.36 |
| N#Cc1ccc(/C=N/NC(=O)c2ccccc2F)cc1 | 9.55 |
| Cc1nnn(-c2nonc2N)c1C(=O)N/N=C/c1ccccc1O | 10.8 |
| Cc1ccc(NC(NC(=O)c2cccs2)C(Cl)(Cl)Cl)cc1C (stereo not drawn) | 11.7 |
| CC(O)CNc1nc2ccccc2n1CC(=O)NCC(F)(F)F (stereo not drawn) | 5.03 |
| COc1ccc(OC)c(S(=O)(=O)N(C)CC(=O)N2CCN(c3cccc(Cl)c3)CC2)c1 | -2.54 |
| Cc1cc(C(=O)NCC2COc3ccccc3O2)c2ccccc2n1 (stereo not drawn) | 7.15 |
| CCC(CC)C(=O)Nc1ccc(Cl)c(Cl)c1 | 9.86 |
| O=C(Cn1nc(-c2ccccc2)c2ccccc2c1=O)Nc1ccc(F)cc1 | 13.3 |
| Nc1c(Cl)cnn(-c2ccccc2)c1=O | 12.3 |

| Compound | hERG current change (%, negative = inhibition) at 1uM [%] |
| --- | --- |
| CC1=C(C(=O)OCc2ccccc2)C(c2cccc([N+](=O)[O-])c2)NC(=O)N1 (stereo not drawn) | 15.1 |
| CCOc1ccccc1NC(=O)COC(=O)C1CCC1 | 5.87 |
| COC(=O)c1[nH]c2c(c1C)C(=O)CC(c1cc(OC)c(OC)c(OC)c1)C2 (stereo not drawn) | 3.77 |
| CCOc1cc(C(=O)N/N=C/C(Br)=C/c2ccccc2)cc(OCC)c1OCC | 7.24 |
| CC1(C)CC(=O)c2cc(OCC(=O)N3CCN(c4ccccc4F)CC3)ccc2O1 | 10.5 |
| Cc1cc(C)cc(N=Cc2[nH]c3ccc(Br)c(Cl)c3c2O)c1 | 14.7 |
| CNC(=O)CC1C(=O)N(Cc2ccccc2)C(=S)N1NC(=O)c1cccc(F)c1 (stereo not drawn) | 8.71 |
| Cc1ccc(NC(=O)CN2C(=O)c3ccccc3C2=O)nc1 | 2.52 |
| Cc1c(NC(=O)CN2C(=O)NC(C)(c3ccccc3)C2=O)c(=O)n(-c2ccccc2)n1C (stereo not drawn) | 5.86 |
| CCCS(=O)(=O)N1CCc2cc(OC)c(OC)cc2C1 | 12.6 |
| COc1cc(NC(=O)c2ccccc2)c(OC)cc1NC(=O)CN1CCCCC1.Cl | 6.17 |
| CCCc1nc2scc(-c3ccccc3)c2c(=O)n1N | 2.47 |
| Cc1cccc(NC(=S)NCc2cccn2C)c1 | -5.34 |
| Cc1ccc([N+](=O)[O-])cc1NC(=O)CSc1nncn1-c1ccccn1 | 4.27 |
| CC(=O)n1cc(/C=N/NC(N)=S)c2ccccc21 | -1.58 |
| CCOc1ccccc1OCC(=O)NCc1ccco1 | 8.23 |
| Cc1noc(C)c1COC(=O)C1CCN(S(=O)(=O)c2c(Cl)cccc2Cl)CC1 | 11.7 |
| CN(CC(=O)NCc1ccccn1)S(=O)(=O)c1ccc(Cl)cc1 | -0.147 |
| COc1ccc(/C=C/C(=O)NNc2cc(=O)n(C)c(=O)n2C)cc1OC | 7.2 |
| O=C(CN1CCC(c2nc3ccccc3[nH]2)CC1)NCc1ccc2c(c1)OCO2 | -41.1 |
| O=S(=O)(/N=C(\[O-])C[n+]1ccccc1)c1ccc(Cl)cc1 | 5.02 |

Source: publication PMC4336329 (PLoS ONE, 2015)
